# Laboratory results reported in PubChem BioAssay (Tox21).
# Several values for one entry are separate records, joined by “and”; a condition that tells them apart may be missing. Equal values may be shown once. Inconclusive means that the source gave no clear call. Such entries were picked first, then a sample of the others. For some assays here: Where the call is inconclusive, the potency comes from a doubtful curve fit. A structure can be active in one record and inactive in another. Activity calls are given as the source filed them. Calls come from the whole dose curve; as a rule, active = well fitted curve in the direction sought with a large enough effect in the repeat runs; inconclusive = weak or mixed curves; inactive = no such curve, though single readings can be large; an effect the other way counts as inactive or inconclusive.
# Key:
# [1] = qHTS assay to identify small molecule antagonists of the estrogen related receptor (ERR) signaling pathway from Tox21 library (AID 1224848); note: nearly all actives have a fitted effect of over 50% in size; for activity, negative = inhibition: % is set by controls: 0 for no effect and ±100 for the full control effect
# Procedure, shortened: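 Luciferase luminescence (ONE-Glo, 30 min room temperature) was the read-out. Cells of the NTP-supplied ERR line, 2,000 per well, were given 6 h at 37 C before compound addition in DMSO and 18 h exposure at 37 C.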
# [2] = qHTS RealTime-Glo MT Cell Viability Assay in HEK293 cells - 32 hour (AID 1224868); note: nearly all actives have a fitted effect of over 50% in size
# Procedure, shortened: (§1)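 Quantitative high-throughput screen of the Tox21 10K library in HEK293: cells and RealTime-Glo reagents plated together, compound added at 5 h, luminescence monitored through 40 h at 37 C.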
# [3] = A CellTox Green Cytotoxicity Assay to monitor cytotoxicity in HEK293 cells - 40 hour (AID 1224871); note: nearly all actives have a fitted effect of over 45% in size
# Procedure, shortened: (§2)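 Homogeneous no-lysis format: HEK293 cell suspension mixed with CellTox Green reagent, seeded, incubated 5 h at 37 C/5% CO2, then dosed by pintool with compound in DMSO.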
# [4] = qHTS RealTime-Glo MT Cell Viability Assay in HEK293 cells - 16 hour (AID 1224872); note: nearly all actives have a fitted effect of over 50% in size; for activity change, negative = cytotoxicity: top concentration of the series differs between compounds; % is set by controls: 0 for no effect and ±100 for the full control effect
# Procedure, shortened: as §1
# [5] = qHTS RealTime-Glo MT Cell Viability Assay in HepG2 cells - 8 hour (AID 1224873); note: nearly all actives have a fitted effect of over 55% in size
# Procedure, shortened: (§3)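 Real-time viability: cells seeded at 600 per well together with NanoLuc and cell-permeant prosubstrate, compounds added after 5 h incubation. Luminescence tracked at 0, 8, 16, 24, 32 and 40 h of exposure.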
# [6] = qHTS RealTime-Glo MT Cell Viability Assay in HEK293 cells - 40 hour (AID 1224874); settings: RealTime-Glo luminescence; max response: stronger effect = lower value; note: nearly all actives have a fitted effect of over 50% in size; for max response: % is set by controls: 0 for no effect and ±100 for the full control effect
# Procedure, shortened: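 Measured as luminescence from the same continuously cultured HEK293 wells at successive time points (0, 8, 16, 24, 32, 40 h) after compound addition. Reagent present from seeding; dosing at 5 h; incubation 37 C.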
# [7] = A CellTox Green Cytotoxicity Assay to monitor cytotoxicity in HEK293 cells - 0 hour (AID 1224869); note: nearly all actives have a fitted effect of over 50% in size
# Procedure, shortened: as §2
# [8] = A CellTox Green Cytotoxicity Assay to monitor cytotoxicity in HEK293 cells - 24 hour (AID 1224875); note: nearly all actives have a fitted effect of over 45% in size
# Procedure, shortened: as §2
# [9] = qHTS RealTime-Glo MT Cell Viability Assay in HepG2 cells - 40 hour (AID 1224870); note: nearly all actives have a fitted effect of over 50% in size
# Procedure, shortened: as §3
# Potency is the fitted concentration of half-maximal effect; tags give direction and shape of the fitted curve.
structure (smiles),measurement,setting,value
CCOP(=S)(OCC)Oc1cc(C)nc(N(CC)CC)n1,Potency,[1],"inconclusive: 61.1 µM [inhibitor, partial curve]"
Cc1cc(C(F)(C(F)(F)F)C(F)(F)F)ccc1NC(=O)c1cccc(I)c1C(=O)NC(C)(C)CS(C)(=O)=O,Potency,[1],"inconclusive: 34.6 µM [inhibitor, partial curve]"
same,Potency,[2],"inconclusive: 17.5 µM [cytotoxic, partial curve]"
O=S(=O)(O)C(F)(F)C(F)(F)C(F)(F)C(F)(F)C(F)(F)C(F)(F)C(F)(F)C(F)(F)F,Potency,[1],"inconclusive: 18.4 µM [inhibitor, full curve, poor fit] and inconclusive: 19.3 µM [inhibitor, full curve]"
same,Potency,[2],"inconclusive: 21.9 µM [cytotoxic, partial curve]"
same,Potency,[3],active: 33 µM and active: 21.9 µM
same,Potency,[4],"inconclusive: 38.9 µM [cytotoxic, partial curve]"
COC(=O)N(OC)c1ccccc1COc1ccn(-c2ccc(Cl)cc2)n1,Potency,[1],active: 0.137 µM
same,Potency,[3],"inconclusive: 1.95 µM [activator, partial curve]"
same,Potency,[4],"inconclusive: 2.75 µM [rising, partial curve]"
same,Potency,[5],"inconclusive: 38.9 µM [falling, partial curve, poor fit]"
O=C1C[C@@H]2OCC=C3CN4CC[C@]56c7ccccc7N1[C@H]5[C@H]2[C@H]3C[C@H]46,Potency,[1],inactive
same,Potency,[2],"inconclusive: 19 µM [cytotoxic, partial curve]"
same,Potency,[4],"inconclusive: 19 µM [cytotoxic, partial curve]"
same,Potency,[6],"inconclusive: 16.9 µM [cytotoxic, partial curve]"
CC1(C)CCC(Cc2ccc(Cl)cc2)C1(O)Cn1cncn1 (centres undefined),Potency,[1],active: 30.6 µM
same,Potency,[2],active: 24.5 µM
same,Potency,[3],"inconclusive: 54.9 µM [activator, single point]"
same,Potency,[4],active: 24.5 µM
same,Potency,[5],"inconclusive: 54.9 µM [falling, partial curve, poor fit]"
CC(C)(C)C(O)C(Oc1ccc(-c2ccccc2)cc1)n1cncn1 (centres undefined),Potency,[1],active: 27.3 µM
same,Potency,[4],active: 49 µM
COC(C)(C)CCC[C@H](C)C/C=C/C(C)=C/C(=O)OC(C)C,Potency,[1],"inconclusive: 54.5 µM [inhibitor, partial curve]"
same,Potency,[3],"inconclusive: 43.6 µM [activator, partial curve]"
COc1ccc2c3c1O[C@H]1[C@@H](O)C=C[C@H]4[C@@H](C2)N(C)CC[C@@]341,Potency,[1],active: 26.9 µM and inactive
same,Potency,[3],"inconclusive: 48.2 µM [activator, single point]"
same,Potency,[4],"inconclusive: 27.1 µM [cytotoxic, partial curve]"
CCCCOCC1CO1 (centres undefined),Potency,[1],"inconclusive: 0.0034 µM [inhibitor, full curve, poor fit]"
same,Potency,[7],active: 19.5 µM
same,Potency,[4],inactive
CC1COC2(c3ccccc3Cl)c3cc(Cl)ccc3NC(=O)CN12 (centres undefined),Potency,[1],"inconclusive: 29.8 µM [inhibitor, partial curve]"
same,Potency,[2],"inconclusive: 26.8 µM [cytotoxic, single point]"
same,Potency,[4],"inconclusive: 26.8 µM [cytotoxic, single point]"
Cc1c([N+](=O)[O-])cc2c(c1[N+](=O)[O-])C(C)(C)CC2(C)C,Potency,[1],"inconclusive: 30.6 µM [inhibitor, partial curve]"
same,Potency,[3],"inconclusive: 61.6 µM [activator, single point]"
CCOC(=S)S,Potency,[1],"inconclusive: 68.6 µM [inhibitor, single point]"
same,Potency,[3],inactive
same,Potency,[4],"inconclusive: 73.6 µM [rising, partial curve, poor fit]"
same,max response,[6],inactive: 6.71% and inactive: 5.31%
Oc1c(Cl)c(Cl)cc(Cl)c1Cl,Potency,[1],active: 37.5 µM
same,Potency,[3],active: 42.5 µM
same,Potency,[8],"inconclusive: 42.5 µM [activator, partial curve]"
Nc1ccc([N+](=O)[O-])cc1N,Potency,[1],"inconclusive: 68.5 µM [inhibitor, single point]"
same,Potency,[4],inactive
CC(Oc1ccc(Oc2ncc(C(F)(F)F)cc2Cl)cc1)C(=O)O (centres undefined),Potency,[1],"inconclusive: 54.5 µM [inhibitor, partial curve]"
same,Potency,[4],inactive
CCCCNC(=O)OCC#CI,Potency,[1],inconclusive: 61.1 µM [inhibitor]
same,Potency,[2],active: 24.4 µM and active: 24.5 µM
same,Potency,[3],active: 54.7 µM and active: 54.9 µM
same,Potency,[5],active: 15.4 µM and active: 12.3 µM
same,Potency,[6],active: 21.8 µM and active: 24.5 µM
same,Potency,[8],"inconclusive: 54.7 µM [activator, single point] and inconclusive: 54.9 µM [activator, single point]"
O=C(NC(=O)c1c(F)cccc1F)Nc1cc(Cl)c(OC(F)(F)C(F)C(F)(F)F)cc1Cl (centres undefined),Potency,[1],"inconclusive: 6.11 µM [inhibitor, full curve] and inconclusive: 10.6 µM [inhibitor, full curve]"
same,Potency,[2],active: 12.3 µM and inactive
same,Potency,[6],"inconclusive: 11 µM [cytotoxic, partial curve]"
same,max response,[6],inactive: -33.5%
O=[N+]([O-])c1ccc(Oc2ccc(C(F)(F)F)cc2[N+](=O)[O-])cc1,Potency,[1],"inconclusive: 27.3 µM [inhibitor, partial curve]"
same,Potency,[2],active: 19.5 µM
same,Potency,[4],active: 19.5 µM
same,Potency,[5],"inconclusive: 49 µM [falling, partial curve, poor fit]"
same,Potency,[6],active: 17.4 µM
COC(=O)/C=C(\C)OP(=O)(OC)OC,Potency,[1],"inconclusive: 34.4 µM [inhibitor, partial curve]"
same,Potency,[4],inactive
O=[N+]([O-])O[C@H]1CO[C@H]2[C@@H]1OC[C@H]2O[N+](=O)[O-],Potency,[1],inactive
same,Potency,[3],inactive
C=CCOC(=O)c1ccccc1N,Potency,[1],"inconclusive: 61.5 µM [inhibitor, partial curve]"
same,Potency,[3],"inconclusive: 62.1 µM [activator, single point]"
same,Potency,[8],"inconclusive: 62.1 µM [activator, single point]"
CC(C)(C)c1cc([N+](=O)[O-])cc(C(C)(C)C)c1O,Potency,[1],active: 2.73 µM
same,Potency,[3],"inconclusive: 30.9 µM [activator, partial curve, poor fit]"
same,Potency,[4],"inconclusive: 12.3 µM [cytotoxic, partial curve]"
same,Potency,[5],"inconclusive: 17.4 µM [falling, partial curve, poor fit]"
CCOc1cc(Oc2ccc(C(F)(F)F)cc2Cl)ccc1[N+](=O)[O-],Potency,[1],"inconclusive: 31 µM [inhibitor, partial curve] and inconclusive: 27.3 µM [inhibitor, full curve]"
same,Potency,[2],"inconclusive: 39.3 µM [cytotoxic, partial curve] and inconclusive: 12.3 µM [cytotoxic, full curve]"
same,Potency,[3],inactive
same,Potency,[4],"inconclusive: 24.8 µM [cytotoxic, partial curve] and inconclusive: 13.8 µM [cytotoxic, full curve]"
same,Potency,[6],"inconclusive: 24.8 µM [cytotoxic, partial curve]"
CC1(c2ccc(Oc3ccccc3)cc2)OC(=O)N(Nc2ccccc2)C1=O (centres undefined),Potency,[1],active: 2.45 µM
same,Potency,[9],"inconclusive: 55.3 µM [falling, single point]"
same,Potency,[3],"inconclusive: 55.3 µM [activator, single point]"
same,Potency,[4],"inconclusive: 39.1 µM [cytotoxic, partial curve]"
same,Potency,[5],active: 49.3 µM
same,Potency,[8],"inconclusive: 55.3 µM [activator, single point]"
O=C(O)c1nn(Cc2ccc(Cl)cc2Cl)c2ccccc12,Potency,[1],inconclusive: 68.1 µM [inhibitor]
same,Potency,[3],inactive
CCOc1nc(C(Cl)(Cl)Cl)ns1,Potency,[1],"inconclusive: 3.06 µM [inhibitor, full curve, poor fit]"
same,Potency,[4],inactive
CC(C)(C)N(NC(=O)c1ccc(Cl)cc1)C(=O)c1ccccc1,Potency,[1],"inconclusive: 30.5 µM [inhibitor, partial curve]"
same,Potency,[2],"inconclusive: 21.7 µM [cytotoxic, partial curve]"
same,Potency,[4],"inconclusive: 21.7 µM [cytotoxic, partial curve, poor fit]"
O=S(=O)(O)C(F)(F)C(F)(F)C(F)(F)C(F)(F)F,Potency,[1],"inconclusive: 72.7 µM [inhibitor, single point]"
same,Potency,[2],"inconclusive: 23.2 µM [cytotoxic, single point]"
same,Potency,[4],"inconclusive: 23.2 µM [cytotoxic, single point]"
same,Potency,[6],"inconclusive: 23.2 µM [cytotoxic, single point]"
CC1=C(C(=O)Nc2ccccc2)SCCO1,Potency,[1],"inconclusive: 78.2 µM [inhibitor, single point] and inconclusive: 77 µM [inhibitor, single point]"
same,Potency,[9],inactive
same,Potency,[4],inactive
NCC(CC(=O)O)c1ccc(Cl)cc1 (centres undefined),"activity, negative = inhibition",[1],inactive: 4.98% [at 0.349 µM]
same,"activity change, negative = cytotoxicity",[4],inactive: 0.531% [at 0.29 µM]
C[C@]12CCC(=O)C=C1CC[C@@H]1[C@@H]2CC[C@]2(C)C(=O)CC[C@@H]12,Potency,[1],"active: 42.5 µM and active: 54.5 µM and inconclusive: 29.8 µM [inhibitor, partial curve]"
same,Potency,[2],"active: 27.1 µM and inconclusive: 24.5 µM [cytotoxic, partial curve]"
same,Potency,[3],active: 48.2 µM
same,Potency,[4],"inconclusive: 21.9 µM [cytotoxic, partial curve]"
same,Potency,[5],inactive
